# Experimental data taken from the supplement of paper PMC8728848.
# Some of the results follow.
# How the values were obtained:
# Experiment in all cases: glycan array binding signal (z-score within array); higher = stronger binding
# Conditions in all cases: glycan notation: IUPAC condensed, linker removed
# [1] = biological target: Gal6S(b1-4)Glc
# How it was run: (§1)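 From the Consortium for Functional Glycomics database, 3228 arrays were curated, keeping only those whose protein sequence was available. Binding is given as a within-array Z-score averaged across arrays sharing a protein sequence and across linkers. Negative Z-scores can be read as non-binding.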
# [2] = biological target: Gal6S(b1-4)Glc6S
# How it was run: as §1
# [3] = biological target: Gal6S(b1-4)GlcNAc
# How it was run: as §1
# [4] = biological target: GalNAc(a1-3)Gal
# How it was run: as §1
# [5] = biological target: GalNAc(a1-3)GalNAc
# How it was run: as §1
# [6] = biological target: GalNAc(b1-3)Gal(a1-4)Gal(b1-4)GlcNAc
# How it was run: as §1
# [7] = biological target: GalNAc(b1-4)GlcNAc
# How it was run: as §1
# [8] = biological target: Glc(a1-4)Glc
# How it was run: as §1
# [9] = biological target: Glc(a1-6)Glc(a1-6)Glc
# How it was run: as §1
# [10] = biological target: Glc(b1-4)Glc
# How it was run: as §1
# [11] = biological target: Glc(b1-6)Glc
# How it was run: as §1
# [12] = biological target: GlcA(b1-3)Gal
# How it was run: as §1
# [13] = biological target: GlcA(b1-6)Gal
# How it was run: as §1
# [14] = biological target: GlcNAc(a1-3)Gal(b1-4)GlcNAc
# How it was run: as §1
# [15] = biological target: GlcNAc(a1-6)Gal(b1-4)GlcNAc
# How it was run: as §1
# [16] = biological target: GlcNAc(b1-2)Gal(b1-3)GlcNAc
# How it was run: as §1
# [17] = biological target: GlcNAc(b1-2)Man(a1-3)[GlcNAc(b1-2)Man(a1-6)]Man(b1-4)GlcNAc(b1-4)GlcNAc
# How it was run: as §1
# [18] = biological target: GlcNAc(b1-3)Gal
# How it was run: as §1
# [19] = biological target: GlcNAc(b1-3)Gal(b1-3)GalNAc
# How it was run: as §1
# [20] = biological target: GlcNAc(b1-3)Gal(b1-4)Glc
# How it was run: as §1
# [21] = biological target: GlcNAc(b1-3)Gal(b1-4)GlcNAc
# How it was run: as §1
# [22] = biological target: GlcNAc(b1-3)Gal(b1-4)GlcNAc(b1-3)Gal(b1-4)GlcNAc
# How it was run: as §1
# [23] = biological target: GlcNAc(b1-3)GalNAc
# How it was run: as §1
# [24] = biological target: GlcNAc(b1-3)[GlcNAc(b1-4)][GlcNAc(b1-6)]GlcNAc
# How it was run: as §1
# [25] = biological target: GlcNAc(b1-3)[GlcNAc(b1-6)]Gal(b1-4)GlcNAc
# How it was run: as §1
# [26] = biological target: GlcNAc(b1-3)[GlcNAc(b1-6)]GlcNAc
# How it was run: as §1
# [27] = biological target: GlcNAc(b1-4)Gal(b1-4)GlcNAc
# How it was run: as §1
# [28] = biological target: GlcNAc(b1-4)GlcNAc(b1-4)GlcNAc
# How it was run: as §1
# [29] = biological target: GlcNAc(b1-4)GlcNAc(b1-4)GlcNAc(b1-4)GlcNAc(b1-4)GlcNAc
# How it was run: as §1
# [30] = biological target: GlcNAc(b1-4)GlcNAc(b1-4)GlcNAc(b1-4)GlcNAc(b1-4)GlcNAc(b1-4)GlcNAc
# How it was run: as §1
# [31] = biological target: GlcNAc(b1-4)[GlcNAc(b1-6)]GalNAc
# How it was run: as §1
# [32] = biological target: GlcNAc(b1-6)Gal(b1-4)GlcNAc
# How it was run: as §1
# [33] = biological target: GlcNAc(b1-6)GalNAc
# How it was run: as §1
# [34] = biological target: Kdn(a2-3)Gal(b1-3)GlcNAc
# How it was run: as §1
# [35] = biological target: Kdn(a2-3)Gal(b1-4)GlcNAc
# How it was run: as §1
# [36] = biological target: Man(a1-2)Man(a1-2)Man(a1-3)Man
# How it was run: as §1
# [37] = biological target: Man(a1-2)Man(a1-2)Man(a1-3)[Man(a1-2)Man(a1-3)[Man(a1-2)Man(a1-6)]Man(a1-6)]Man(b1-4)GlcNAc(b1-4)GlcNAc
# How it was run: as §1
# [38] = biological target: Man(a1-2)Man(a1-2)Man(a1-3)[Man(a1-2)Man(a1-6)[Man(a1-3)]Man(a1-6)]Man(b1-4)GlcNAc(b1-4)GlcNAc
# How it was run: as §1
# [39] = biological target: Man(a1-2)Man(a1-2)Man(a1-6)[Man(a1-3)]Man
# How it was run: as §1
# [40] = biological target: Man(a1-2)Man(a1-3)Man
# How it was run: as §1
# [41] = biological target: Man(a1-2)Man(a1-3)[Man(a1-2)Man(a1-6)]Man
# How it was run: as §1
# [42] = biological target: Man(a1-2)Man(a1-3)[Man(a1-3)[Man(a1-6)]Man(a1-6)]Man(b1-4)GlcNAc(b1-4)GlcNAc
# How it was run: as §1
# [43] = biological target: Man(a1-2)Man(a1-3)[Man(a1-6)]Man(a1-6)[Man(a1-2)Man(a1-3)]Man(b1-4)GlcNAc(b1-4)GlcNAc
# How it was run: as §1
# [44] = biological target: Man(a1-3)[Man(a1-6)]Man
# How it was run: as §1
# [45] = biological target: Man(a1-3)[Man(a1-6)]Man(a1-6)[Man(a1-3)]Man(b1-4)GlcNAc(b1-4)GlcNAc
# How it was run: as §1
# [46] = biological target: Man(a1-3)[Man(a1-6)]Man(b1-4)GlcNAc(b1-4)GlcNAc
# How it was run: as §1
# [47] = biological target: Man(b1-4)GlcNAc
# How it was run: as §1
# [48] = biological target: Neu5Ac(a2-3)Gal
# How it was run: as §1
# [49] = biological target: Neu5Ac(a2-3)Gal(b1-3)GalNAc
# How it was run: as §1
binder,measurement,setting,value
"HMGB1 (Rattus norvegicus), P63159 (protein) MGKGDPKKPRGKMSSYAFFVQTCREEHKKKHPDASVNFSEFSKKCSERWKTMSAKEKGKFEDMAKADKARYEREMKTYIPPKGETKKKFKDPNAPKRPPSAFFLFCSEYRPKIKGEHPGLSIGDVAKKLGEMWNNTAADDKQPYEKKAAKLKEKYEKDIAAYRAKGKPDAAKKGVVKAEKSKKKKEEEDDEEDEEDEEEEEEEEDEDEEEDDDDE",glycan array binding signal (z-score),[1],-0.44
same,glycan array binding signal (z-score),[2],-0.435
same,glycan array binding signal (z-score),[3],0.122
same,glycan array binding signal (z-score),[4],0.597
same,glycan array binding signal (z-score),[5],-0.361
same,glycan array binding signal (z-score),[6],2.44
same,glycan array binding signal (z-score),[7],-0.047
same,glycan array binding signal (z-score),[8],-0.351
same,glycan array binding signal (z-score),[9],-0.297
same,glycan array binding signal (z-score),[10],-0.597
same,glycan array binding signal (z-score),[11],-0.508
same,glycan array binding signal (z-score),[12],-0.66
same,glycan array binding signal (z-score),[13],0.038
same,glycan array binding signal (z-score),[14],-0.403
same,glycan array binding signal (z-score),[15],-0.663
same,glycan array binding signal (z-score),[16],-0.577
same,glycan array binding signal (z-score),[17],0.033
same,glycan array binding signal (z-score),[18],-0.129
same,glycan array binding signal (z-score),[19],-0.523
same,glycan array binding signal (z-score),[20],0.617
same,glycan array binding signal (z-score),[21],-0.411
same,glycan array binding signal (z-score),[22],-0.369
same,glycan array binding signal (z-score),[23],-0.446
same,glycan array binding signal (z-score),[24],-0.482
same,glycan array binding signal (z-score),[25],-0.499
same,glycan array binding signal (z-score),[26],-0.561
same,glycan array binding signal (z-score),[27],-0.031
same,glycan array binding signal (z-score),[28],-0.167
same,glycan array binding signal (z-score),[29],0.04
same,glycan array binding signal (z-score),[30],0.339
same,glycan array binding signal (z-score),[31],-0.541
same,glycan array binding signal (z-score),[32],2.57
same,glycan array binding signal (z-score),[33],-0.344
same,glycan array binding signal (z-score),[34],-0.575
same,glycan array binding signal (z-score),[35],-0.401
same,glycan array binding signal (z-score),[36],-0.58
same,glycan array binding signal (z-score),[37],-0.287
same,glycan array binding signal (z-score),[38],-0.147
same,glycan array binding signal (z-score),[39],1.1
same,glycan array binding signal (z-score),[40],0.018
same,glycan array binding signal (z-score),[41],-0.492
same,glycan array binding signal (z-score),[42],0.289
same,glycan array binding signal (z-score),[43],-0.111
same,glycan array binding signal (z-score),[44],-0.131
same,glycan array binding signal (z-score),[45],-0.07
same,glycan array binding signal (z-score),[46],-0.322
same,glycan array binding signal (z-score),[47],-0.316
same,glycan array binding signal (z-score),[48],-0.347
same,glycan array binding signal (z-score),[49],1.07
